Results from PubChem BioAssay AID1347417 (National Center for Advancing Translational Sciences (NCATS), 2020).
Screen size: about 120,000 compounds; about 5,300 (4.4%) were called active. Inconclusive means that the source gave no clear call. Such entries were picked first, then a sample of the others. Calls follow the shape of the dose curve; as a rule, active = well fitted inhibition curve with a large enough effect; inconclusive = small, poorly fitted or top-dose-only effect; inactive = no such curve, though single readings can be large or run the other way. A potency beside an inconclusive call is a rough fit, not a confirmed value.
Potency is read from the fitted curve at half-maximal effect; tags tell the direction and shape of the fitted curve.

Assay: qHTS Primary assay for Inhibitors of Plasmodium falciparum Dd2 growth in vitro; also: nearly all actives have a fitted effect of over 65% in size;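 as to activity, negative = inhibition: plate controls were DMSO vehicle for no effect and reference drug for full effect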
Conditions: P. falciparum Dd2 growth, SYBR Green, 72 h; activity, negative = inhibition: at 28.9 µM (top of the series) unless noted; series mostly up to 28.9 µM
In short: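 Infected erythrocytes (Dd2, 0.3% parasitemia, 2.5% hematocrit final) are added to compound in RPMI-1640/Albumax II medium, grown 72 h at 37C in low oxygen, then lysed with saponin/Triton-X containing SYBR Green and read by fluorescence.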
In the case of `COc1ccc(Cl)cc1NC(=O)Cn1cnc2sc(C)c(S(=O)(=O)N3CCN(c4ccccc4OC)CC3)c2c1=O`, the Potency is reported as active: 10 µM. With `O=C(NCc1cccs1)c1cc(C2CC2)nc2onc(C3CCNC3)c12` (stereo unspecified) the Potency was “inactive”. With `Cc1ccc(C(=O)CC2(O)C(=O)N(Cc3ccccc3)c3ccccc32)c(C)c1` (stereo unspecified) the activity, negative = inhibition was inconclusive: -104% [inhibitor] [at 5.79 µM]. With `CC1(c2ccccc2)N(Cc2ncccn2)C(=O)OC12CCN(C(=O)Cc1ccc3c(c1)OCO3)CC2` (stereo unspecified) the Potency was inconclusive: 10 µM [inhibitor, partial curve, poor fit]. In the case of `COc1ccc(CN2CCC3(CC(=O)NC3=O)C2)cc1OCc1ccccc1` (stereo unspecified), the Potency is reported as inconclusive: 6.31 µM [inhibitor, partial curve]. For `COc1ccc(-c2nc(Cn3c(=O)cc(C)c4c(C)nn(-c5ccccc5)c43)c(C)o2)c(OC)c1`, the Potency was “inactive”. For `CCOC(=O)c1c(C)[nH]c(CCC(=O)NCCCN2CCN(c3ccccc3F)CC2)c1C`, the Potency was active: 11.2 µM. In the case of `O=C(Nc1cccc(C(F)(F)F)c1)c1nc2c(o1)CCN(CC1CC1)CC2`, the Potency is reported as inconclusive: 10 µM [inhibitor, single point]. For `CC(C)OCCCN1C(=O)c2[nH]nc(-c3ccccc3O)c2C1c1cccc(OCc2ccccc2)c1` (stereo unspecified), the Potency was active: 5.62 µM. In the case of `O=C(O)Cn1nc(COc2ccc(F)cc2)nc1CN1CCCCCC1=O`, the Potency is reported as “inactive”. With `c1cncc(Cc2noc(C3CN(Cc4ccsc4)C3)n2)c1` the Potency was inconclusive: 12.6 µM [inhibitor, partial curve]. With `CCOc1cccc(CN2CCCC3(Cc4ccccc4CNC3=O)C2)c1` (stereo unspecified) the Potency was inconclusive: 7.08 µM [inhibitor, partial curve, poor fit]. For `Cc1ccc2c(c1)C(c1ccc(F)cc1)N(C(=O)c1cccc(C(F)(F)F)c1)CC(=O)N2` (stereo unspecified), the Potency was inconclusive: 11.2 µM [inhibitor, single point]. With `Cc1ccc(F)cc1CN1CCN(C)C2(CCC(=O)N(CC3CC3)CC2)C1` (stereo unspecified) the Potency was “inactive”. With `CN(c1cc(=O)c2ccnc(-c3ccccc3Oc3ccccc3)c2o1)C1CCOCC1` the Potency was inconclusive: 7.94 µM [inhibitor, partial curve, poor fit]. In the case of `Cc1cc(C)c(CN2C(=O)c3ccccc3S(=O)(=O)c3ccc(C(=O)OCC4CCCO4)cc32)c(C)c1` (stereo unspecified), the Potency is reported as inconclusive: 1.26 µM [inhibitor, full curve, poor fit]. For `CCOc1ccc2c(c1)c(=O)c(C(=O)c1ccc(C)cc1)cn2Cc1ccccc1OC`, the Potency was inconclusive: 12.6 µM [inhibitor, partial curve, poor fit]. In the case of `CCOc1ccccc1NC(=O)CN1C(=O)C2(SCC(=O)N2c2ccc(C)cc2)c2ccccc21` (stereo unspecified), the Potency is reported as inconclusive: 10 µM [inhibitor, single point]. In the case of `CC(C)c1ccc(NC(=O)Cn2c(=O)n(Cc3nc(-c4ccccc4)no3)c(=O)c3cc4c(cc32)OCO4)cc1`, the Potency is reported as “inactive”. With `CN(C)S(=O)(=O)N1CCOc2ccc(CCC(=O)NCC3CC3)cc2C1` the Potency was “inactive”. For `CCC(c1cccs1)N1C(=O)[C@H]2CN(S(=O)(=O)c3ccccc3Cl)C[C@H]2C1=O` (stereo partly specified), the Potency was inconclusive: 7.94 µM [inhibitor, partial curve]. In the case of `Cc1ccccc1C(c1c(C)n(C)n(-c2ccccc2)c1=O)c1c(C)n(C)n(-c2ccccc2)c1=O`, the Potency is reported as inconclusive: 17.8 µM [inhibitor, single point]. For `Cc1ccc(-n2ncc(C(=O)NCCCN3CCN(C)CC3)c2C2CCN(C(=O)OC(C)(C)C)CC2)c(C)c1`, the Potency was “inactive”. In the case of `CC(=O)N1C[C@@H](CO)[C@H](NC(=O)c2ccccc2)C1`, the Potency is reported as “inactive”. With `CC(C)(C)OC(=O)N1CCC(c2c(C(=O)N3CCCCC3)cnn2-c2ccc(F)cc2F)CC1` the Potency was inconclusive: 8.91 µM [inhibitor, single point]. In the case of `Cn1c(Oc2ccccc2)nc2c1c(=O)n(Cc1ccc(Cl)cc1Cl)c(=O)n2C`, the Potency is reported as inconclusive: 11.2 µM [inhibitor, single point]. In the case of `CCCSc1nnc2n(-c3cccc(C)c3)c(=O)c3c4c(sc3n12)CCCC4`, the Potency is reported as inconclusive: 17.8 µM [inhibitor, single point]. For `CCc1cc(=O)n(CC(=O)N2CCN(c3ccccc3OC)CC2)c(-c2ccccc2)n1`, the Potency was “inactive”. In the case of `COc1ccc(Cl)cc1NC(=O)CN1C(=O)NC2(CCOCC2)C1=O`, the Potency is reported as “inactive”. In the case of `CN(C)c1cccc(C(=O)N2CCN(C(=O)c3nnn4c3COC(c3ccc(Cl)cc3)C4)CC2)c1` (stereo unspecified), the Potency is reported as inconclusive: 1.26 µM [inhibitor, partial curve, poor fit]. For `Clc1ccccc1C1(c2ccnc(NC3CC3)n2)CCNCC1`, the Potency was inconclusive: 6.31 µM [inhibitor, partial curve]. For `CCCN(Cc1cccs1)C(=O)Nc1ccc(F)c(Cl)c1`, the Potency was inconclusive: 11.2 µM [inhibitor, partial curve]. With `COc1ccc(OC)c(Nc2c3c(nc4ccccc24)CCC3)c1` the Potency was inconclusive: 10 µM [inhibitor, single point]. For `C[C@@H](NC(=O)COc1ccccc1)c1c(-c2ccc(F)cc2)noc1C(=O)O`, the Potency was “inactive”. In the case of `O=c1cc(-c2cccnc2)oc2c(NCc3ccccc3)nccc12`, the Potency is reported as inconclusive: 14.1 µM [inhibitor, partial curve, poor fit]. For `CCc1ccccc1NS(=O)(=O)c1cc(Br)cc2c1N(C(=O)C1CC1)CC2`, the Potency was inconclusive: 17.8 µM [inhibitor, single point]. In the case of `CCOC(=O)Cn1c(=O)n(CC2CCCO2)c2nc(-c3c(F)cccc3Cl)nc(C(N)=O)c21` (stereo unspecified), the Potency is reported as inconclusive: 10 µM [inhibitor, single point]. With `Cn1c(CN2CCCCC2)nnc1C1CCCN(C(=O)c2cocn2)C1` (stereo unspecified) the Potency was inconclusive: 0.112 µM [inhibitor, full curve, poor fit]. For `CCc1cccc(NS(=O)(=O)c2cc(-c3cnc(C)o3)ccc2OC)c1`, the Potency was inconclusive: 11.2 µM [inhibitor, single point]. In the case of `CC(Nc1oc(-c2ccc(COc3ccc(Cl)cc3)o2)nc1C#N)c1ccccc1` (stereo unspecified), the Potency is reported as inconclusive: 8.91 µM [inhibitor, single point]. For `CN1C(=O)CCC2(CNC(=O)c3n[nH]c(=O)c4ccccc34)CCC=C12` (stereo unspecified), the Potency was “inactive”. With `O=C(c1ccoc1)N1CCCN(Cc2cn(-c3ccccc3)nn2)CC1` the Potency was “inactive”. For `O=C1CO[C@H](c2ccc(NS(=O)(=O)c3cccc(F)c3)cc2)[C@@H](CO)N1C1CCOCC1`, the Potency was “inactive”. With `CCC1=C(C(=O)OC)C(c2ccccc2)N2C(CC(=O)NCc3cccc(F)c3)=CSC2=N1` (stereo unspecified) the Potency was active: 3.98 µM. For `COC(=O)c1[nH]nc2c1C(c1ccc(OC)c(OC)c1Cl)CC(=O)N2` (stereo unspecified), the Potency was inconclusive: 17.8 µM [inhibitor, single point]. In the case of `COc1cc2c(cc1Oc1ccccc1)NC(=O)C21CCN(c2nccs2)CC1`, the Potency is reported as inconclusive: 2.51 µM [inhibitor, single point]. In the case of `COc1ccc(NC(=O)c2cnc3c(c2)N(c2ccccc2OC)CCC3)cn1`, the Potency is reported as active: 6.31 µM. For `Cc1noc(Cn2c(=O)c3ccccc3n(CC(=O)Nc3ccc(C(C)C)cc3)c2=O)n1`, the Potency was inconclusive: 14.1 µM [inhibitor, single point]. For `CCOc1ccc(NC(=O)CN2CCSc3ccc(S(=O)(=O)N4CCCC4)cc32)cc1`, the Potency was inconclusive: 8.91 µM [inhibitor, single point]. With `COC(=O)c1c(NC(=O)/C=C/c2ccc(OC)c(OC)c2)sc2c1CCC2` the Potency was “inactive”. In the case of `CNC(=O)c1cccc(S(=O)(=O)NC2CCCN(C3CCCCCC3)C2)c1` (stereo unspecified), the Potency is reported as inconclusive: 12.6 µM [inhibitor, single point]. In the case of `Cc1cc(C)n(C(C)CC(=O)Nc2ccc(C)c(F)c2)n1` (stereo unspecified), the Potency is reported as inconclusive: 12.6 µM [inhibitor, partial curve, poor fit]. With `Cc1ccccc1Cn1c(SCc2ccc(C(=O)NCCc3ccccc3)cc2)nc2ccncc21` the Potency was active: 7.08 µM. With `COc1ccc(CN(C)Cc2cccs2)cc1OCC(O)CN1CCN(C)CC1` (stereo unspecified) the Potency was inconclusive: 14.1 µM [inhibitor, partial curve]. With `O=C1CCN(Cc2cccnc2)CCCC(C(=O)NC2CCN(Cc3ccccc3)CC2)CCN1` (stereo unspecified) the Potency was “inactive”. For `COc1ccc(-n2cc(-c3ccc4c(c3)OCO4)n(CC(=O)Nc3cccc(C)c3)c2=O)cc1`, the Potency was active: 12.6 µM. With `CCCCC1CCC(CCCC(C)CCC(=O)O)CC1` (stereo unspecified) the Potency was inconclusive: 17.8 µM [inhibitor, single point]. For `CCN1C(=O)CCC2(C(=O)N3CCOCC3)CCCC=C12` (stereo unspecified), the Potency was “inactive”. In the case of `COc1ccc(-c2cn(C)c(=O)n3cc(COc4ccnn4C)nc23)cc1`, the Potency is reported as inconclusive: 1.41 µM [inhibitor, partial curve, poor fit]. For `O=C(Nc1nccs1)[C@@H]1C[C@@H](c2ccc(F)cc2)N(CCOc2ccccc2)C1`, the Potency was inconclusive: 3.55 µM [inhibitor, full curve, poor fit]. In the case of `COc1ccc(OC)c(S(=O)(=O)N2CCCCCCNC(=O)CC2)c1`, the Potency is reported as inconclusive: 17.8 µM [inhibitor, single point]. For `COc1ccccc1C(=O)N1CCn2c(nn(-c3cccc(Cl)c3)c2=O)C1`, the activity, negative = inhibition was inconclusive: -107% [inhibitor]. With `CCNC(=O)c1cccnc1OC1CCN(C(=O)c2cc(F)ccc2F)C1` (stereo unspecified) the Potency was “inactive”. With `COc1ccc(C(=O)Nc2nc3n(n2)C(c2ccc(F)cc2)C=C(c2ccc(Cl)cc2)N3)cc1` (stereo unspecified) the Potency was active: 5.01 µM. In the case of `Cc1nc2c(c(C)nn2C(C)(C)C)c(C)c1CCC(=O)Nc1ccc(Br)cc1Br`, the Potency is reported as inconclusive: 11.2 µM [inhibitor, partial curve]. With `CCCCCNc1ncnc2c1CN(c1ccc(Cl)cc1)C(=O)CN2C` the Potency was “inactive”.
